# Experimental data from PubChem BioAssay AID504832 (National Center for Advancing Translational Sciences (NCATS), 2011).
# About 18,000 (5.8%) of roughly 310,000 compounds were called active. Inconclusive means that the source gave no clear call. Such entries were picked first, then a sample of the others. The call rests on the fitted dose curve; in most records, active means well fitted inhibition curve with a large enough effect; inconclusive means small, poorly fitted or top-dose-only effect, or another doubt; inactive means no such curve, though single readings can be large or run the other way. No potency is given beside an inconclusive call; the fits are too rough.
# Assay: Primary qHTS for delayed death inhibitors of the malarial parasite plastid, 48 hour incubation
# Settings: P. falciparum luciferase growth in erythrocytes; series mostly up to 28.7 µM; activity change, negative = inhibition: at the top concentration
# In short: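 Growth was read as firefly luciferase luminescence after a 48 h, 37 C, 5% CO2 exposure of compounds to reporter-bearing P. falciparum cultures (0.1% parasitemia, 2% hematocrit final) in Albumax-supplemented RPMI 1640.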
# On the % scale 0 is the no-effect control and ±100 the full control effect; potency means the concentration at half of the fitted maximal effect; tags describe the fitted curve by direction and shape.
SMILES,"activity change, negative = inhibition",Potency
COc1cccc(C2C(C#N)=C(N)N(N(C)C)C3=C2C(=O)CCC3)c1 (stereo unspecified),inactive: 0%,–
CN(c1ccccc1)c1nc(N)c([N+](=O)[O-])c(Nc2ccccc2)n1,–,"inconclusive [inhibitor, partial curve, poor fit]"
CCCCc1ccc(/C(C)=N/NC(=O)C2CCCC2)cc1,inactive: 42.3%,–
CN1C(=O)C(C)(C)c2cc(S(=O)(=O)N3CCCC(C(=O)NCc4ccccc4Cl)C3)ccc21 (stereo unspecified),–,"inconclusive [inhibitor, single point]"
Cc1cc(OCC(=O)NCc2ccncc2)c2c(C)c(C)c(=O)oc2c1,–,"inconclusive [inhibitor, single point]"
Cc1nn(C)c(C(=O)N/N=C/c2cccnc2)c1Br,inactive: -2.92%,–
O=C(CSc1ncn[nH]1)N1N=C2/C(=C/c3ccco3)CCCC2C1c1ccco1 (stereo unspecified),–,active: 11.7 µM
FC(F)(F)c1nnc2ccc(N3CCCCCC3)nn12,–,"inconclusive [inhibitor, single point]"
CC1CCN(c2cc(N3CCN(C(=O)c4ccc(F)c(F)c4)CC3)c([N+](=O)[O-])cc2F)CC1,inactive: -5.15%,–
COc1cccc(-c2nc(N3CCCCC3C)c3ccccc3n2)c1O (stereo unspecified),–,"inconclusive [inhibitor, single point]"
COc1nccc(-c2ccc(F)cc2)c1C#N,–,"inconclusive [inhibitor, single point]"
CC(C)Cc1nnc(NC(=O)C2CCN(C(=O)c3ccc(F)cc3)CC2)s1,–,"inconclusive [inhibitor, partial curve, poor fit]"
COc1cccc(C(=O)Nc2nnc(-c3ccc(Cl)cc3)o2)c1,–,"inconclusive [inhibitor, single point]"
COc1ccc(N2CC(C(=O)NCc3ccco3)CC2=O)cc1 (stereo unspecified),inactive: 0.845%,–
O=C(O)c1[nH]c2ccc(Br)cc2c1CCN1C(=O)c2cccc([N+](=O)[O-])c2C1=O,inactive: 37%,–
CC(C)C[C@@H](CN(C)N=O)N(C[C@H](Cc1ccccc1)N(CCc1ccccc1)N=O)N=O,–,"inconclusive [inhibitor, single point]"
Cc1cccc(N(Cc2ccccc2)C(=O)CCl)c1,–,"inconclusive [inhibitor, partial curve, poor fit]"
COc1cc2c(cc1OC)CN(C(=O)NS(=O)(=O)c1ccc(C)cc1)CC2,–,"inconclusive [inhibitor, single point]"
c1ccc(-c2ccc(-c3n(-c4ccccn4)c4ccccc4[n+]3-c3ccccn3)cc2)cc1,–,"inconclusive [inhibitor, partial curve]"
COc1ccc(C(CNC(=O)COc2ccc(-c3ccccc3)cc2)N2CCOCC2)cc1 (stereo unspecified),–,"inconclusive [inhibitor, full curve, poor fit]"
COc1ccc(CNC(=O)C2CSCCS2)cc1 (stereo unspecified),inactive: 36.1%,–

SMILES,"activity change, negative = inhibition",Potency
CCCC(=O)Nc1cc(-c2nc3ncccc3o2)ccc1C,–,"inconclusive [inhibitor, single point]"
c1ccc(C[C@H]2CN=C(Nc3ccccc3)N2CCC2CCCC2)cc1,–,"inconclusive [inhibitor, single point]"
COc1ccccc1Nc1nnc(SCc2cc(=O)n3ccsc3n2)s1,–,"inconclusive [inhibitor, partial curve]"
Cc1cccnc1NC(=O)NC(=O)c1ccc(C(C)(C)C)s1,–,"inconclusive [inhibitor, single point]"
CC(N)C(=O)OC(C)(C)Cc1ccc(Cl)cc1 (stereo unspecified),–,inactive
O=C1C=Cc2ccccc2C1=O,–,"inconclusive [inhibitor, partial curve, poor fit]"
CC1(C)C([N+](=O)[O-])C(c2ccc(F)cc2)NC(c2ccc(F)cc2)C1[N+](=O)[O-] (stereo unspecified),–,"inconclusive [inhibitor, single point]"
O=C1[C@H]2[C@@H](c3ccc(F)cc3)N3C(=O)N(c4ccc(Br)cc4)C(=O)[C@@]3(Cc3ccc(Cl)cc3)[C@H]2C(=O)N1C1CCCCC1,–,"inconclusive [inhibitor, partial curve]"
CC1CCCCN1C(=O)C1CCN(S(=O)(=O)c2ccc(-n3cnnn3)cc2)CC1 (stereo unspecified),–,"inconclusive [inhibitor, single point]"
CC(=O)c1ccc(N(C(=O)CNC(=O)c2ccco2)C(C(=O)NC2CCCC2)c2ccncc2)cc1 (stereo unspecified),inactive: 34.3%,–
CS(=O)(=O)c1ccc(NS(=O)(=O)c2ccc(Cl)c(C(=O)NCc3ccco3)c2)cc1,–,"inconclusive [inhibitor, single point]"
Nc1[nH]nc2ncc3cc4ccccc4nc3c12,–,"inconclusive [inhibitor, single point]"
CC1CCCC(C)N1C(=O)Cn1cc(/C=C2/C(=O)Nc3ccccc32)c2ccccc21 (stereo unspecified),–,"inconclusive [inhibitor, single point]"
CCn1cc(C(=O)N2CCN(c3ccc(F)cc3)CC2)c2cc(OC)c(OC)cc2c1=O,–,"inconclusive [inhibitor, partial curve, poor fit]"
O=C(NCc1ccc(F)cc1)C1C2C=CC3(CN(Cc4cccnc4)C(=O)C13)O2 (stereo unspecified),–,"inconclusive [inhibitor, single point]"
CCOC(=O)C1=C(C)N=C2SC(C)C(=O)N2C1c1ccc(OCC)c(OCC)c1 (stereo unspecified),–,active: 11.7 µM
COc1cc(NC(=O)CNc2cccc(S(=O)(=O)N3CCCC3)c2)cc(OC)c1,–,"inconclusive [inhibitor, single point]"
CCc1ccc(N2CC(O)(c3cccs3)[N+]3=C2SCCC3)cc1 (stereo unspecified),–,"inconclusive [inhibitor, single point]"
O=C(C(=O)N1CCCc2ccccc21)c1cn(CC(=O)N2CCOCC2)c2ccccc12,–,"inconclusive [inhibitor, full curve]"
CCCN(CCC)S(=O)(=O)c1cccc(C(=O)N=c2sccn2C)c1,–,"inconclusive [inhibitor, single point]"
